From PubChem BioAssay AID1963576 (National Center for Advancing Translational Sciences (NCATS), 2024)
The campaign covered roughly 46,000 compounds. About 60 (0.1%) were called active. Inconclusive results (about 3%) are left out. Calls come from the whole dose curve; as a rule, active = well fitted inhibition curve with a large enough effect; inconclusive = small, poorly fitted or top-dose-only effect; inactive = no such curve, though single readings can be large or run the other way. The list shows a part of the results.

assay: Primary qHTS assay for Inhibitors of ovarian cancer metastasis using an organotypic tumor microenvironment (TME) model.; note: nearly all actives have a fitted effect of over 65% in size;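 for activity change, negative = inhibition: plate controls were DMSO wells for no effect and tomatine positive control wells for full effect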; settings: SKOV3ip1-GFP adhesion/invasion on 3D omental model, fluorescence; series mostly up to 45.8 µM; activity change, negative = inhibition: at the top concentration
Procedure, shortened: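 Primary human omental fibroblast/mesothelial 3D culture pre-formed 48 h. SKOV3ip1-GFP cells added with compounds (0.36-46 umol/L), incubated 2 h RT/16 h 37 C, fixed; GFP cells quantified at 488/509 nm.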

Activity change, negative = inhibition, inactive:
CC(Sc1nc2c(c(=O)[nH]1)CCCC2)C(=O)Nc1cc(C(F)(F)F)ccc1Cl (stereo not given) -1.27%
Cc1cccc(C(=O)NCCc2nc3ccccc3n2Cc2ccc(Cl)cc2)c1 -0.471%
CCCCc1ccc(-n2nc3cc(Cl)c(NC(=O)c4ccc(OC)cc4)cc3n2)cc1 -11%
Cc1ccc(-n2cnc3cc(C(=O)NCc4ccc(F)cc4)ccc32)c(C)c1 13.5%
CCOC(=O)C1CCN(c2nc3c(S(=O)(=O)c4ccccc4)nnn3c3ccc(Cl)cc23)CC1 -1.73%
Cc1ccc(NC(=O)CN2CCN(c3ccccc3F)CC2)cc1F 0.487%
CCC(CC)C(=O)Nc1ccccc1SCc1cc(=O)c2cccc(C)c2[nH]1 2.44%
COCCCNC(=O)C1CCC(Cn2c(=O)c3sccc3n(C)c2=O)CC1 (stereo not given) -15.7%
Cc1ccc(NC(=O)c2ccc(Cl)cc2Cl)c(C(=O)c2ccccc2)c1 2%
Cc1ccc(Cn2c(C)c(CNCC(C)c3ccccc3)c(C(=O)O)c2C)cc1 (stereo not given) 15%
CCOc1ccc(-c2cc3c(=O)n(Cc4nc(-c5ccccc5OCC)oc4C)ccn3n2)cc1Cl -3.08%
O=S(=O)(NCc1ccc(Cl)cc1)c1ccc2[nH]c3c(c2c1)CCCC3 -1.76%
CCCCN(CCCNC(=O)c1cc(Nc2ccc(OC)cc2)nc2ccccc12)Cc1ccccc1 -5.64%
COc1ccc(-n2cc(-c3ccc4c(c3)OCO4)n(CC(=O)Nc3cccc(C)c3C)c2=O)c(OC)c1 1.47%
Cc1ccc(C)c(N2CCN(S(=O)(=O)c3ccc(-c4coc(C)n4)cc3)CC2)c1 11.1%
COc1ccc(C(=O)c2sc3nc(-c4ccc(C)cc4)cc(C(F)(F)F)c3c2N)cc1 0.665%
Cc1cc(Nc2ncc3c(n2)N(C)C(=O)N(c2cc(NC(=O)c4cccc(C(F)(F)F)c4)ccc2C)C3)n(C)n1 1.68%
O=c1c(S(=O)(=O)c2ccccc2)cn(Cc2ccc(F)cc2)c2cc(N3CCOCC3)c(F)cc12 1.23%
Cc1cccc(N2CCN(C(=O)Cn3ncc4c5ccccc5n(C)c4c3=O)CC2C)c1 (stereo not given) -6.11%
Cc1ccc(S(=O)(=O)c2nc(S(=O)(=O)c3ccc(C)cc3)c(NCCCOC(C)C)s2)cc1 -15.8%
COc1cccc2cc(-c3nc(Nc4cccc(C)c4C)sc3C)c(=O)oc12 2.87%
O=C(COCc1cc(-c2ccc(F)cc2)on1)Nc1cc(Cl)ccc1O -9.14%
CCOC(=O)c1c(NC(=O)/C=C/c2ccc(C)cc2)sc(C(C)=O)c1C 2.1%
COc1cccc(C2C=C(c3ccccc3)Nc3c(C(=O)Nc4ccccc4)cnn32)c1OC (stereo not given) 9.67%
CC(=O)Nc1nonc1-c1nnc(SCC(=O)Nc2cc(Cl)ccc2C)n1C -3.2%
CC1(C)[C@H](C(=O)O)N2C(=O)C[C@H]2S1(=O)=O 16.3%
CCOC(=O)c1cnc2cc(F)c(F)cc2c1Nc1ccccc1O -1.89%
O=C(O)c1ccc(-c2c[nH]c3ncc(-c4ccccc4)cc23)cc1C1CCCC1 -10.4%
Cn1c(=O)c2c(nc(NCCc3ccccc3)n2Cc2ccc(Cl)cc2)n(C)c1=O -0.132%
Cc1cccc(C(=O)Nc2sc3c(c2C(=O)NC(C)C)CCCC3)c1 -8.07%
Cc1ccc(NC(=O)CCCn2c(=O)c3cccn3c3cccnc32)cc1C 5.19%
Cc1ccc(NS(=O)(=O)c2cc3[nH]c(=O)c(=O)[nH]c3cc2C)cc1N(C)C 6.14%
Cc1ccc(CNC(=O)CSc2ncc3c(n2)-c2ccc(Cl)cc2N(Cc2ccccc2)S3(=O)=O)cc1 19.7%
COc1cc(OC)c(NC(=O)c2noc3c2CSc2ccccc2-3)cc1Cl -3.91%
CC(=O)c1ccc(N2CCN(C(=O)CCc3nnc4n(C)c(=O)c5sccc5n34)CC2)cc1 37.5%
CC(C)(C)OC(=O)N1CCC(c2c(C(=O)N3CCCCC3)cnn2-c2cccc(F)c2)CC1 1.77%
O=C(Nc1ccc(Br)cc1F)N1CCC(CN2CCc3ccccc3C2)CC1 4.03%
COc1ccc(C(=O)COC(=O)CCCC(=O)Nc2cc(C(F)(F)F)ccc2Cl)cc1 20.1%
CC1(C)CC(=O)c2c(oc3c(Cl)cc(NS(=O)(=O)c4ccc(Br)cc4)cc23)C1 11.1%
CC(C)CC(=O)Nc1ccccc1OCc1cc(=O)n2ccccc2n1 -18.3%
CCC(C)NC(=O)c1ccc2nc(CCc3ccccc3)oc2c1 (stereo not given) 5.68%
Cc1ccc(NC(=O)C(=O)NCC(c2ccc3c(c2)OCO3)N2CCOCC2)cc1C (stereo not given) 5.24%
COc1ccccc1CNC(=O)c1ccc(-c2nc(CS(=O)(=O)c3ccc(C)cc3)c(C)o2)cc1 -4.11%
O=C(NCCc1ccc(Cl)cc1)c1cc(-c2ccc(Cl)cc2)n[nH]1 2.3%
Cc1ccc(CNC(=O)CCCc2nnc3n(C)c(=O)c4sccc4n23)cc1 7.45%
CCOC(=O)c1c(NC(=O)/C=C/c2ccc(C)cc2)sc2c1CCCC2 5.21%
Cc1ccc(Nc2c(-c3ccc(C)s3)nc3ncccn23)cc1 0.521%
COc1ccc(OCC(=O)OCc2cc(=O)n3nc(C4CC4)sc3n2)cc1 -0.802%
O=c1[nH]c2ccc(NCc3ccc(-c4ccccc4)o3)cc2[nH]1 7.66%
CC1=C(C(=O)Nc2ccccc2)C(c2cccc(Cl)c2)n2nc(SCC(=O)c3ccc(C)cc3)nc2N1 (stereo not given) 0.646%
O=C(CSc1nc(-c2ccccc2)nc2c1Cc1ccccc1O2)N1CCCCC1 -0.639%
COc1ccc(OC)c(NC(=O)c2cn(CC(C)C)c(=O)c3cc(OC)c(OC)cc23)c1 35.1%
O=C(Nc1ccc2oc(-c3ccc4ccccc4c3)nc2c1)c1ccc(Cl)c(Cl)c1 3.77%
CCN(c1ccccc1)S(=O)(=O)c1ccc(NC(=O)c2cc(=O)c3ccccc3o2)cc1 6.1%
O=C(Nc1ccc(C(=O)OCc2cc(=O)n3nc(C4CC4)sc3n2)cc1)c1cccc(F)c1 -0.0947%
Fc1ccc(Nc2ncnc3c2nc2n3CCCCC2)c(F)c1 -8.13%
CCOc1ccc(-c2oc3ccc(C)cc3c(=O)c2O)cc1 -2.02%
CCCc1nnc(NC(=O)c2cc(=O)c3cc(C)c(C)cc3o2)s1 9.19%
CCC(=O)N1CCc2cc(Br)cc(S(=O)(=O)CCC(=O)N3CCN(c4cc(C)ccc4C)CC3)c21 6.89%
CCOC(=O)c1cnc2ccc(C)cc2c1Nc1ccc(N(CC)CC)cc1 -26.4%
Cc1c(C(=O)OC2CCCCC2)[nH]c2c1C(=O)CC(c1ccc(C(C)(C)C)cc1)C2 (stereo not given) 7.99%
CCOC(=O)c1cc(-c2ccc(OC)cc2)n(CCC(=O)NC2CCCCC2)c1C -4.71%
CCOC(=O)c1c(S(=O)(=O)N2CCC(C(=O)Nc3ncccc3C)CC2)c(C)n(C)c1C -0.518%
COc1ccc2c(CNC3CCCCCC3)c(C(=O)O)n(Cc3ccccc3F)c2c1 7.43%
O=C(Nc1ccc(F)cc1)C1CCN(S(=O)(=O)c2ccc3c(c2)CCCN3C(=O)C2CCC2)CC1 -11.3%
COc1ccccc1C(=O)Nc1ccc(C(=O)OCc2cc(=O)n3ccsc3n2)cc1 2.54%
CC1=C(C(=O)NCc2ccc(Cl)cc2)C2(CCCCCC2)OC1=O -6.71%
COc1ccccc1C(=O)NC(=O)Nc1ccc(-n2nc(C(F)(F)F)cc2C(F)(F)F)cc1 2.66%
Cc1ccc(N2CC(NC(=O)CCc3ccccc3)CC2=O)cc1 (stereo not given) -2.96%
Cc1cccc(N2CCN(C(=O)Cn3c(=O)c4cccn4c4ccc(F)cc43)CC2)c1C -3.48%
CCOC(=O)CCn1nc(C)c2c(C)n(-c3ccccc3)nc2c1=O -5.22%

outcome, inactive:
CCOC(=O)c1ccc2nc(C)cc(Nc3ccc(OC(C)C)cc3)c2c1
CCOC(=O)C(CC)n1nc(C)c2c(C)n(-c3ccc(C)cc3)nc2c1=O (stereo not given)
COc1cc(OC)cc(C(=O)Nc2ccc(-c3nc4cc(C(C)C)ccc4o3)cc2)c1
CCCCc1c(C)nc2c(-c3ccc(Cl)cc3)c(C)[nH]n2c1=O
O=S(=O)(Nc1ccc(F)c(Cl)c1)c1ccc(Br)s1
Nc1nonc1C(=O)NCCNCc1ccccc1F
Cc1ccccc1-n1nc(CO)c(C(=O)NCC(c2ccccc2)c2ccccc2)n1
COc1ccc(CCNC(=O)CCCn2c(=O)c3ccccc3n(Cc3ccccc3C#N)c2=O)cc1OC
CC(=O)C1=C(c2ccc(Cl)c(Cl)c2)N(C(C)=O)n2c(nnc2-c2ccccc2)S1
COc1cc(C(CC(=O)Nc2cccc(C(C)=O)c2)N2Cc3ccccc3C2=O)cc(OC)c1OC (stereo not given)
CCOC(=O)c1cc(S(=O)(=O)NCc2cccc(Cl)c2)[nH]n1
Cc1ccc(C)c(NC(=O)CSc2nnc(-c3cc4occc4n3C)n2-c2ccccc2C)c1
CCc1ccccc1NC(=O)[C@@H](c1ccccc1)N1Cc2ccccc2C1=O
CCCCn1c(SCC(=O)Nc2ccc(OCC)cc2)nc2ccsc2c1=O
COC(=O)c1cc(Cl)ccc1NC(=O)CSc1ncc(S(=O)(=O)c2ccc(Br)cc2)c(=O)[nH]1
CC(=O)N1CCc2c(sc3c2c(=O)n(-c2cc(Cl)ccc2C)c(=O)n3Cc2ccccc2F)C1
CCCCOC(=O)c1ccc(NC(=O)c2cc(-c3cccs3)on2)cc1
Cc1cccc(OCC(=O)Nc2ccccc2C(=O)OCc2cc(=O)n3nc(C)sc3n2)c1
CCOc1ccc(NC(=O)CCCc2nnc3n(C)c(=O)c4sccc4n23)cc1
O=C(NCc1ccccc1F)C(=O)NCC(c1ccco1)S(=O)(=O)c1cccs1 (stereo not given)
Cc1ccc(CCNC(=O)c2cc3c(-c4ccccc4F)nn(C)c3s2)cc1
COc1cccc(CSc2nc3n(n2)C(c2cccnc2)C(C(=O)Nc2ccccc2C)=C(C)N3)c1 (stereo not given)
COc1ccc(-c2ccc3c(N)c(C(=O)Nc4cccc(C)c4)sc3n2)cc1
CCOC(=O)c1sc(NC(=O)c2cc3nc(-c4ccc(Br)cc4)cc(C(F)(F)F)n3n2)c(C(=O)OCC)c1C
